# From the supplement of paper PMC8728848
# Some of the results follow.
# B1: Epa3to1 (Candida glabrata) (protein)
# chain: MGSSHHHHHHSSGLVPRGSHMKRELSSQNPFGYPIGCSPQDVAIIPGLTMELYSYPIVSGTPPNCYDASYVDPEYPRTGYLKRKMVGKSTGVTGNLNYKYSVEKACMVKYGNLPAGYNYNEPLTVSNFTMILYGYFKAQTTGLHTFFVNADDLLYINFGAGNAFDCCKREDSKTKLGEYVAYDIWHVDSSKNKVSLFLEKDLYYPIRMFFNNREYDSSLDLSFSVNGATDQISDFSGYLYSVPDQPDTCPAHIGYDTTCR
# Key:
# Experiment in all cases: glycan array binding signal (z-score within array); higher = stronger binding
# Details in all cases: glycan notation: IUPAC condensed, linker removed
# GlcNAc(b1-3)Man = target: GlcNAc(b1-3)Man
# How it was run: (§1)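 From the Consortium for Functional Glycomics database, 3228 arrays were curated, keeping only those whose protein sequence was available. Binding is given as a within-array Z-score averaged across arrays sharing a protein sequence and across linkers. Negative Z-scores can be read as non-binding.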
# [1] = target: GlcNAc(b1-3)[GlcNAc(b1-4)][GlcNAc(b1-6)]GlcNAc
# How it was run: as §1
# [2] = target: GlcNAc(b1-3)[GlcNAc(b1-6)]Gal(b1-4)GlcNAc
# How it was run: as §1
# [3] = target: GlcNAc(b1-3)[GlcNAc(b1-6)]GalNAc
# How it was run: as §1
# [4] = target: GlcNAc(b1-4)Gal(b1-4)GlcNAc
# How it was run: as §1
# GlcNAc(b1-4)GlcNAc = target: GlcNAc(b1-4)GlcNAc
# How it was run: as §1
# [5] = target: GlcNAc(b1-4)GlcNAc(b1-4)GlcNAc
# How it was run: as §1
# [6] = target: GlcNAc(b1-4)GlcNAc(b1-4)GlcNAc(b1-4)GlcNAc(b1-4)GlcNAc
# How it was run: as §1
# [7] = target: GlcNAc(b1-4)GlcNAc(b1-4)GlcNAc(b1-4)GlcNAc(b1-4)GlcNAc(b1-4)GlcNAc
# How it was run: as §1
# [8] = target: GlcNAc(b1-4)[GlcNAc(b1-6)]GalNAc
# How it was run: as §1
# [9] = target: GlcNAc(b1-6)Gal(b1-4)GlcNAc
# How it was run: as §1
# GlcNAc(b1-6)GalNAc = target: GlcNAc(b1-6)GalNAc
# How it was run: as §1
# [10] = target: GlcNAc6S(b1-3)Gal(b1-4)GlcNAc
# How it was run: as §1
# Kdn(a2-3)Gal(b1-3)GalNAc = target: Kdn(a2-3)Gal(b1-3)GalNAc
# How it was run: as §1
# Kdn(a2-3)Gal(b1-3)GlcNAc = target: Kdn(a2-3)Gal(b1-3)GlcNAc
# How it was run: as §1
# Kdn(a2-3)Gal(b1-4)Glc = target: Kdn(a2-3)Gal(b1-4)Glc
# How it was run: as §1
# Kdn(a2-3)Gal(b1-4)GlcNAc = target: Kdn(a2-3)Gal(b1-4)GlcNAc
# How it was run: as §1
# [11] = target: Kdn(a2-3)Gal(b1-4)[Fuc(a1-3)]GlcNAc
# How it was run: as §1
# Kdn(a2-6)Gal(b1-4)GlcNAc = target: Kdn(a2-6)Gal(b1-4)GlcNAc
# How it was run: as §1
# [12] = target: Man(a1-2)Man(a1-2)Man(a1-3)Man
# How it was run: as §1
# [13] = target: Man(a1-2)Man(a1-2)Man(a1-6)[Man(a1-3)]Man
# How it was run: as §1
# Man(a1-2)Man(a1-3)Man = target: Man(a1-2)Man(a1-3)Man
# How it was run: as §1
# [14] = target: Man(a1-2)Man(a1-3)[Man(a1-2)Man(a1-6)]Man
# How it was run: as §1
# [15] = target: Man(a1-2)Man(a1-3)[Man(a1-2)Man(a1-6)]Man(a1-6)[Man(a1-2)Man(a1-2)Man(a1-3)]Man
# How it was run: as §1
# [16] = target: Man(a1-2)Man(a1-3)[Man(a1-2)Man(a1-6)]Man(a1-6)[Man(a1-2)Man(a1-2)Man(a1-3)]Man(b1-4)GlcNAc(b1-4)GlcNAc
# How it was run: as §1
# [17] = target: Man(a1-2)Man(a1-3)[Man(a1-6)]Man(a1-6)[Man(a1-2)Man(a1-3)]Man(b1-4)GlcNAc(b1-4)GlcNAc
# How it was run: as §1
# [18] = target: Man(a1-2)Man(a1-6)[Man(a1-3)]Man(a1-6)[Man(a1-2)Man(a1-2)Man(a1-3)]Man
# How it was run: as §1
# [19] = target: Man(a1-2)Man(a1-6)[Man(a1-3)]Man(a1-6)[Man(a1-2)Man(a1-2)Man(a1-3)]Man(b1-4)GlcNAc(b1-4)GlcNAc
# How it was run: as §1
# Man(a1-3)[Man(a1-6)]Man = target: Man(a1-3)[Man(a1-6)]Man
# How it was run: as §1
# [20] = target: Man(a1-3)[Man(a1-6)]Man(a1-6)[Man(a1-2)Man(a1-3)]Man(b1-4)GlcNAc(b1-4)GlcNAc
# How it was run: as §1
# [21] = target: Man(a1-3)[Man(a1-6)]Man(a1-6)[Man(a1-3)]Man
# How it was run: as §1
# [22] = target: Man(a1-3)[Man(a1-6)]Man(a1-6)[Man(a1-3)]Man(b1-4)GlcNAc(b1-4)GlcNAc
# How it was run: as §1
# [23] = target: Man(a1-3)[Man(a1-6)]Man(b1-4)GlcNAc(b1-4)GlcNAc
# How it was run: as §1
# [24] = target: Man(a1-3)[Man(a1-6)]Man(b1-4)GlcNAc(b1-4)[Fuc(a1-6)]GlcNAc
# How it was run: as §1
# Man(a1-6)Man = target: Man(a1-6)Man
# How it was run: as §1
# Man(b1-4)GlcNAc = target: Man(b1-4)GlcNAc
# How it was run: as §1
# MurNAc(b1-4)GlcNAc = target: MurNAc(b1-4)GlcNAc
# How it was run: as §1
# Neu5Ac(a2-3)Gal = target: Neu5Ac(a2-3)Gal
# How it was run: as §1
binder,measurement,setting,value
B1,glycan array binding signal (z-score),GlcNAc(b1-3)Man,0.203
same,glycan array binding signal (z-score),[1],-0.188
same,glycan array binding signal (z-score),[2],0.014
same,glycan array binding signal (z-score),[3],-0.653
same,glycan array binding signal (z-score),[4],0.507
same,glycan array binding signal (z-score),GlcNAc(b1-4)GlcNAc,0.066
same,glycan array binding signal (z-score),[5],-0.73
same,glycan array binding signal (z-score),[6],4.95
same,glycan array binding signal (z-score),[7],-0.596
same,glycan array binding signal (z-score),[8],-0.662
same,glycan array binding signal (z-score),[9],-0.13
same,glycan array binding signal (z-score),GlcNAc(b1-6)GalNAc,-0.403
same,glycan array binding signal (z-score),[10],0.276
same,glycan array binding signal (z-score),Kdn(a2-3)Gal(b1-3)GalNAc,0.402
same,glycan array binding signal (z-score),Kdn(a2-3)Gal(b1-3)GlcNAc,0.242
same,glycan array binding signal (z-score),Kdn(a2-3)Gal(b1-4)Glc,-0.072
same,glycan array binding signal (z-score),Kdn(a2-3)Gal(b1-4)GlcNAc,-0.323
same,glycan array binding signal (z-score),[11],0.515
same,glycan array binding signal (z-score),Kdn(a2-6)Gal(b1-4)GlcNAc,0.532
same,glycan array binding signal (z-score),[12],-0.251
same,glycan array binding signal (z-score),[13],0.788
same,glycan array binding signal (z-score),Man(a1-2)Man(a1-3)Man,-0.708
same,glycan array binding signal (z-score),[14],-1.26
same,glycan array binding signal (z-score),[15],-0.102
same,glycan array binding signal (z-score),[16],-0.413
same,glycan array binding signal (z-score),[17],-0.818
same,glycan array binding signal (z-score),[18],-1.04
same,glycan array binding signal (z-score),[19],0.206
same,glycan array binding signal (z-score),Man(a1-3)[Man(a1-6)]Man,-0.058
same,glycan array binding signal (z-score),[20],0.637
same,glycan array binding signal (z-score),[21],-0.11
same,glycan array binding signal (z-score),[22],0.273
same,glycan array binding signal (z-score),[23],-0.496
same,glycan array binding signal (z-score),[24],-0.326
same,glycan array binding signal (z-score),Man(a1-6)Man,0.759
same,glycan array binding signal (z-score),Man(b1-4)GlcNAc,0.076
same,glycan array binding signal (z-score),MurNAc(b1-4)GlcNAc,-0.371
same,glycan array binding signal (z-score),Neu5Ac(a2-3)Gal,-0.383
